In all, about 310,000 compounds went through this assay and about 18,000 (5.8%) were called active. This list was built around the results that the source calls inconclusive (neither active nor inactive); the mix of calls is not that of the screen. The call rests on the fitted dose curve; in most records, active means well fitted inhibition curve with a large enough effect; inconclusive means small, poorly fitted or top-dose-only effect, or another doubt; inactive means no such curve, though single readings can be large or run the other way. Potencies of inconclusive entries are left out as doubtful fits.
Experiment: Primary qHTS for delayed death inhibitors of the malarial parasite plastid, 48 hour incubation
Details: P. falciparum luciferase growth in erythrocytes; series mostly up to 28.7 µM
Outline: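 Erythrocytes infected with P. falciparum carrying an integrated firefly luciferase reporter (2% hematocrit, 0.1% parasitemia final) were exposed to compounds in RPMI 1640 with 0.5% Albumax at 37 C, 5% CO2. Growth inhibition was scored as reduced luminescence.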
Potency means the concentration at half of the fitted maximal effect; tags describe the fitted curve by direction and shape.

| SMILES | Potency |
| --- | --- |
| CC(=O)N1CCN(C(=O)c2cccc(S(=O)(=O)N3CCN(c4ccc(F)cc4)CC3)c2)CC1 | inconclusive [inhibitor, single point] |
| CCOc1ccc(NC(=S)NC(=O)c2cnn(CC)c2)c([N+](=O)[O-])c1 | inconclusive [inhibitor, single point] |
| CC(=O)c1nc2ccccc2n1CCc1ccccc1 | inactive |
| CCN(CC)S(=O)(=O)c1ccc2c(c1)c(=O)c(C(=O)NCCc1ccccc1)cn2C | inconclusive [inhibitor, single point] |
| S=C(NC1CCCC1)N1CCN(C/C=C/c2ccccc2)CC1 | inactive |
| CCCC(=O)OCC(=O)c1[nH]c(C)c(C(C)=O)c1C | inconclusive [inhibitor, single point] |
| Cn1c(=O)c2c(nc(NC3CCCCC3)n2CC(=O)C23CC4CC(CC(C4)C2)C3)n(C)c1=O | inconclusive [inhibitor, full curve, poor fit] |
| C/C(=N/NC(=O)CN1CCN(Cc2ccccc2Cl)CC1)c1cccs1 | inactive |
| COc1cc(C(=O)Nc2ccc3oc(-c4cccnc4)nc3c2)cc(OC)c1OC | inactive |
| CC(NC(=O)/C(=C\c1ccco1)NC(=O)c1ccccc1Br)C(=O)O (stereo unspecified) | inactive |
| CCOc1cc(CNCCO)cc(Br)c1OCc1ccc(Cl)cc1 | inconclusive [inhibitor, partial curve, poor fit] |
| COc1ccc(NC(=O)CN(C)Cc2cccs2)cc1Cl | inconclusive [inhibitor, partial curve, poor fit] |
| O=C(OCC(=O)N(CCc1ccccc1)Cc1ccccc1)c1ccccc1NCCO | inconclusive [inhibitor, full curve, poor fit] |
| CCN(c1ccc(OC)cc1)S(=O)(=O)c1ccc2c(c1)CC(C)N2C(=O)C1CC1 (stereo unspecified) | inconclusive [inhibitor, single point] |
| O=[N+]([O-])c1ccccc1N/N=C1\CC2CC=CC12 (stereo unspecified) | inactive |
| CCCc1nc(NCC2CCCO2)c2nnn(Cc3ccccc3)c2n1 (stereo unspecified) | active: 14.7 µM |
| CCOc1ccccc1NC(=O)c1cc(-c2cc(OC)c(OC)c(OC)c2)nc2ccccc12 | inconclusive [inhibitor, full curve, poor fit] |
| COc1ccc(NC(=O)CNC(=O)Cc2cccc3ccccc23)c(OC)c1 | inconclusive [inhibitor, single point] |
| CN(C)c1ccc(/C=C/C(=O)c2ccccc2)cc1[N+](=O)[O-] | inactive |
| CCOc1ccc(CCNC(=O)COC(=O)COc2ccc(C#N)cc2)cc1OCC | inconclusive [inhibitor, partial curve, poor fit] |
| COc1ccc(NC(=O)c2cc(-c3ccc4c(c3)OCO4)on2)cc1OC | inactive |
| CC(NC(=O)COC(=O)CC(c1ccccc1)c1ccccc1)c1ccccc1 (stereo unspecified) | inconclusive [inhibitor, partial curve] |

| SMILES | Potency |
| --- | --- |
| Cc1ccccc1Nc1nc(NCc2ccco2)c2ccccc2n1 | inconclusive [inhibitor, full curve] |
| CN(C)S(=O)(=O)c1ccc(C(=O)OCCn2cnc3c2c(=O)n(C)c(=O)n3C)cc1 | inactive |
| Cc1cc(SCc2cc(=O)[nH]c3ccccc23)nc2ccccc12 | active: 1.47 µM |
| COCc1cc(=O)[nH]c2c1c(-c1ccccc1)nn2C | inactive |
| FC(F)(F)c1cc(-c2ccco2)nc(NCc2cccnc2)n1 | active: 11.7 µM |
| CC(Nc1ccnc2cc(Cl)ccc12)c1ccc(S(N)(=O)=O)cc1 (stereo unspecified) | active: 1.85 µM |
| CC(C)C(=O)N1CCN(c2ccccc2NC(=O)COc2ccc(C3CCCCC3)cc2)CC1 | inconclusive [inhibitor, partial curve] |
| Cc1cccc(N=C2NC(=O)c3cc([N+](=O)[O-])ccc32)c1 | inactive |
| CCC(C)(C)C1CCC(=NNC(=S)Nc2cccnc2)CC1 (stereo unspecified) | inconclusive [inhibitor, single point] |
| CCOc1cc(/C=C2\C(=N)N3N=C(S(C)(=O)=O)SC3=NC2=O)ccc1OCCOc1cccc(OC)c1 | inconclusive [inhibitor, partial curve, poor fit] |
| C=CCN(c1ccccc1)S(=O)(=O)c1cccc(C(=O)Nc2cc(C)ccn2)c1 | inconclusive [inhibitor, single point] |
| O=C1CSC(=S)N1/N=C/c1cccnc1 | inactive |
| CCCCn1c(N)c(N(CCOC)C(=O)c2ccc(Cl)c(S(=O)(=O)N3CCCCC3)c2)c(=O)[nH]c1=O | inconclusive [inhibitor, partial curve, poor fit] |
| COc1ccc2[nH]cc(CCNC(=O)C3CC(=O)N(c4ccc(Cl)cc4)C3)c2c1 (stereo unspecified) | inconclusive [inhibitor, partial curve] |
| CCOc1ccc(S(=O)(=O)Nc2cccc(C(=O)NCCCN3CCCC3=O)c2)cc1 | inconclusive [inhibitor, single point] |
| COc1ccc([C@@H]2[C@@H]3C(=O)N(C(C)(C)C)C(=O)[C@@H]3[C@]3(Cc4ccccc4)C(=O)N(c4cccc(F)c4)C(=O)N23)cc1 | inconclusive [inhibitor, partial curve, poor fit] |
| Cc1[nH]c2c(C)cccc2c1CN1CCC(CO)(Cc2ccccc2)CC1 | inconclusive [inhibitor, single point] |
| CCC(CO)NCc1ccc(OCC(O)c2ccccc2)c(OC)c1 (stereo unspecified) | inactive |
| COc1cc(-c2[nH]ncc2CN(C)Cc2nonc2C)cc(OC)c1OC | inconclusive [inhibitor, partial curve, poor fit] |
| CCOC(=O)N1CCN(CC(=O)c2ccc(O)c(C)c2O)CC1 | inactive |
| Cc1cccc2c1CC(C)(C)N=C2C1=C(O)CC(C)(C)CC1=O | inconclusive [inhibitor, single point] |
| COc1ccc(CCCC(=O)NC2CCCCC2C)c(C)c1 (stereo unspecified) | inconclusive [inhibitor, single point] |

| SMILES | Potency |
| --- | --- |
| CNC(=S)N/N=C/c1cn(Cc2ccc(F)cc2)c2ccccc12 | inconclusive [inhibitor, partial curve, poor fit] |
| Cc1c(C#N)c(O)n(CCO)c(=O)c1N=Nc1ccc(S(N)(=O)=O)cc1 | inactive |
| O=c1cc(CSc2nnc(Nc3ccccc3F)s2)nc2sccn12 | inactive |
| CCC(C)(C)NC(=O)C(c1ccncc1)N(C(=O)c1sc(C)nc1C)c1ccc(C)cc1 (stereo unspecified) | active: 9.28 µM |
| CCn1c(CNC(=O)COc2ccc(C(C)C)cc2)nnc1SCC(=O)Nc1ccccc1C(C)C | inconclusive [inhibitor, single point] |
| Cc1ccc(S(=O)(=O)Nc2cc(-c3nn(C)c(=O)c4ccccc34)ccc2N2CCOCC2)cc1 | inconclusive [inhibitor, partial curve, poor fit] |
| CCOc1cccc(NC(=O)Cn2nc(-c3ccc4c(c3)OCCO4)ccc2=O)c1 | inconclusive [inhibitor, single point] |
| COC(Cn1c2c(c3cc(C)ccc31)CCCC2NCc1ccccc1)OC (stereo unspecified) | inconclusive [inhibitor, single point] |
| CCOC(=O)CSc1nc2c(sc(=S)n2-c2ccccc2OC)c(=O)n1Cc1ccco1 | inconclusive [inhibitor, single point] |
| CCOC1(OCC)N=C(N)C2(C#N)C(c3ccc(NC(C)=O)cc3)C12C#N (stereo unspecified) | inconclusive [inhibitor, partial curve, poor fit] |
| CCCCC(=O)Nc1ccc(C)c(S(=O)(=O)N2CCCCCC2)c1 | inconclusive [inhibitor, single point] |
| COc1ccc2c(c1)O[C@@H](c1ccc3c(c1)OCO3)[C@H](OC(=O)Nc1cc(OC)c(OC)c(OC)c1)C2=O | active: 13.1 µM |
| COc1ccccc1OCC(=O)N/N=C1\CCCCc2ccccc21 | inconclusive [inhibitor, partial curve, poor fit] |
| Cc1ccc(-n2nnnc2Sc2nc([N+](=O)[O-])nn2C)cc1C | active: 3.29 µM |
| Cn1nc([N+](=O)[O-])nc1Sc1cccc2cccnc12 | inconclusive [inhibitor, single point] |
| C=CCNC(=O)/C(C#N)=C/c1cn(-c2ccccc2)nc1-c1ccc(OC)c([N+](=O)[O-])c1 | inconclusive [inhibitor, single point] |
| O=C1NC2=C(CCc3ccccc32)C(c2ccccc2)N1 (stereo unspecified) | inconclusive [inhibitor, single point] |
| CC1Sc2ccc(S(=O)(=O)CCC(=O)N3CCN(c4ccccc4F)CC3)cc2NC1=O (stereo unspecified) | inconclusive [inhibitor, partial curve, poor fit] |
| CN(CCC(=O)Nc1ccc(Br)cc1)Cc1ccccc1 | inactive |
| COC(=O)c1cnc(Oc2ccc(NC(=O)NC(=O)c3c(OC)cccc3OC)cc2)cc1C(F)(F)F | inconclusive [inhibitor, single point] |
| Cc1ncc(CN2CCCC(C(=O)c3cccc(OC(C)C)c3)C2)s1 (stereo unspecified) | inconclusive [inhibitor, single point] |
| CCCCN(C(=O)c1ccc(-c2ccc([N+](=O)[O-])cc2)o1)c1c(N)n(CC(C)C)c(=O)[nH]c1=O | inconclusive [inhibitor, partial curve] |

From PubChem BioAssay AID504832 (National Center for Advancing Translational Sciences (NCATS), 2011)
